# Values joined by “and” are separate entries in the source; they are usually repeats but may differ in a detail not shown here. Equal entries are not always repeated. In all, about 420,000 compounds went through this assay and about 64,000 (15%) were called active. Inconclusive means that the source gave no clear call. Such entries were picked first, then a sample of the others. Calls come from the whole dose curve; as a rule, active = well fitted inhibition curve with a large enough effect; inconclusive = small, poorly fitted or top-dose-only effect; inactive = flat fitted curve, though single readings scatter. Where the call is inconclusive, the potency comes from a doubtful curve fit.
# Assay: qHTS for Inhibitors of human tyrosyl-DNA phosphodiesterase 1 (TDP1): qHTS in cells in absence of CPT; note: nearly all actives have a fitted effect of over 55% in size
# Details: DT40 Tdp1-/- hTDP1 cells, no CPT, ATP luminescence, 48 h; activity change, negative = growth inhibition: at 46.2 µM (top of the series) unless noted
# Summary of the method: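 Luminescent ATP content (CellTiter-Glo) served as the growth readout. Knockout chicken DT40 cells expressing human TDP1 were exposed to compounds without camptothecin for a minimum 48 hr at 37 °C.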
# % is set by controls: 0 for no effect and ±100 for the full control effect; potency is the fitted concentration of half-maximal effect; tags give direction and shape of the fitted curve.
SMILES,Potency,"activity change, negative = growth inhibition"
Nc1nc(Nc2ccccc2)nc(NCCO)c1[N+](=O)[O-],"inconclusive: 29.1 µM [inhibitor, single point]",
CCc1ccccc1Nc1nn2c(=O)c3ccc(C(=O)NCc4ccccn4)cc3nc2s1,active: 11.6 µM,
CNC(=S)Nc1ccccc1-c1ccccc1,,inconclusive: -33.3% [inhibitor]
Cc1cccc(N(CC(=O)NC2CCCC2)C(=O)c2nsc(Cl)c2Cl)c1C,"inconclusive: 25.9 µM [inhibitor, single point]",
O=C(NOCc1ccccc1)c1cccc([N+](=O)[O-])c1,,inactive: -4.33%
CCOC(=O)Nc1ccc(S(=O)(=O)N2CCOCC2)cc1,,inactive: -18.9%
Nc1ccc2nc(-c3cccc(-c4nc5ccc(N)cc5[nH]4)c3)[nH]c2c1,"inconclusive: 11.6 µM [inhibitor, single point]",
COc1cc(/C=N/NC(=O)c2cc(-c3ccccc3)nc3ccccc23)cc(OC)c1O,"inconclusive: 1.46 µM [inhibitor, partial curve, poor fit]",
Cc1ccccc1-c1nc(Cc2ccc(Cl)cc2)no1,,inactive: -7.9%
COc1ccccc1P(=O)(c1ccccc1)c1ccc([N+](=O)[O-])cc1 (stereo not drawn),"inconclusive: 25.9 µM [inhibitor, single point]",
CCCc1cc(-c2nc(N)ncc2-c2csc(C)n2)c(O)cc1OC,"inconclusive: 23.1 µM [inhibitor, single point]",
C/C(=N\NC(=O)C1CC1)c1ccc(C(C)(C)C)cc1,"inconclusive: 29.1 µM [inhibitor, single point]",
Cc1ccc2c(c1)cc(CN(Cc1ccc3c(c1)OCO3)C(=O)c1ccccc1)c1nnnn12,active: 20.6 µM,
CC(C)C(=O)NCC1CCC2(CCN(Cc3ccc(-c4cccc(Cl)c4)o3)CC2)O1 (stereo not drawn),"inconclusive: 16.4 µM [inhibitor, single point]",
COc1ccc(NC(=O)[C@H](Cc2ccccc2)N2Cc3ccccc3C2=O)cc1OC,,inactive: -17.3%
COc1ccccc1C(=O)NC(CCSC)C(=O)N1CCC(Cc2ccccc2)CC1 (stereo not drawn),active: 18.4 µM,
N#Cc1ccc(N2CCN(c3ccc(F)cc3)CC2)cc1,,inconclusive: -31.3% [inhibitor]
Cc1cccc(NC(=O)c2ccc(C(=O)c3ccccc3)cc2)n1,"inconclusive: 20.6 µM [inhibitor, single point]",
CC(=O)Cn1ncc(Br)c(Br)c1=O,active: 5.17 µM,
CC(C)C(=O)c1cn(CC(=O)N2CCCc3ccccc32)c2ccccc12,"inconclusive: 29.1 µM [inhibitor, single point]",
COc1ccc(-c2cc(NC(C)=O)c3ncc(-c4cc(OC)c(OC)c(OC)c4)n3c2)cn1,active: 2.91 µM,
CC(C)(C)c1ccc(C(=O)NCc2nnc(SCC(=O)N3CCCc4ccccc43)n2-c2ccccc2)cc1,"inconclusive: 20.6 µM [inhibitor, single point]",
CCOc1ccc(NS(=O)(=O)c2ccc3c(c2)CCN3C(=O)C2CCC2)cc1,"inconclusive: 29.1 µM [inhibitor, single point]",
CCCn1c(SCC(=O)N2CCN(C(=O)c3ccco3)CC2)nc2ccccc2c1=O,"inconclusive: 20.6 µM [inhibitor, partial curve, poor fit]",
Cc1ccc(-n2ncc(C(=O)NCCN3CCN(C)CC3)c2C2CCN(C(=O)OC(C)(C)C)CC2)cc1C,"inconclusive: 20.6 µM [inhibitor, single point]",

SMILES,Potency,"activity change, negative = growth inhibition"
CCN1CCN(c2ccc(NC(=O)c3ccc4c(c3)[nH]c(=O)n4Cc3ccc(F)cc3)cc2)CC1,active: 29.1 µM,
CCCNCC1C(Oc2ccc(Cl)cc2Cl)C(=O)N1c1cccc(C)c1C (stereo not drawn),active: 18.4 µM,
CCn1cc(/C=N\NC(=O)c2cc(-c3ccccc3OC)nc3ccccc23)c(C)n1,active: 16.4 µM,
CSc1nc2[nH]c3c(c2c2nnnn12)CCCC3,"inconclusive: 25.9 µM [inhibitor, single point]",
Cc1ccc2c(C)nc(Nc3nc(CSc4nnnn4-c4ccccc4)cc(=O)[nH]3)nc2c1,active: 6.51 µM,
S=C(Nc1ccccn1)c1ccccn1,active: 0.92 µM,
COc1ccc(C(=O)CN2C(=O)NC3(CCCc4ccccc43)C2=O)cc1 (stereo not drawn),"inconclusive: 29.1 µM [inhibitor, single point]",
COCCN1C(=O)CCC1(C)c1nnnn1-c1ccc2ccccc2c1 (stereo not drawn),,inactive: 6.11%
O=C(COc1ccc(S(=O)(=O)NCc2ccccc2)cc1)N1CCOCC1,,inactive: -18.6%
O=C(NC(=S)Nc1ccc2ncccc2c1)c1ccccc1,"inconclusive: 29.1 µM [inhibitor, single point]",
CCCN(CCC)C(=O)CC(c1ccc(F)cc1)c1ccco1 (stereo not drawn),active: 20.6 µM,
CCCn1c(C(C)Nc2nc(-c3ccc(Cl)c([N+](=O)[O-])c3)cs2)nc2ccccc21 (stereo not drawn),"inconclusive: 32.6 µM [inhibitor, single point]",
CSc1ccccc1OCc1cc(C(=O)NCCc2ccco2)no1,"inconclusive: 29.1 µM [inhibitor, single point]",
Cc1cc(C)c(C#N)c(SCC(=O)NC(C)(C)C)n1,,inactive: -1.89%
CN1C(=O)c2cccc(NCCCCCCN3C(=O)c4ccccc4C3=O)c2C1=O,active: 9.2 µM,
O=C(Cn1c(=O)n(Cc2ccccc2)c(=O)c2ccccc21)NCc1ccco1,"inconclusive: 20.6 µM [inhibitor, partial curve]",
CC(=O)c1cccc(NS(=O)(=O)c2c(C(=O)N3CCCCCC3)c(C)n(C)c2C)c1,"inconclusive: 29.1 µM [inhibitor, single point]",
COc1cc(-c2nnc(COC(=O)CSc3cc(C)c4ccccc4n3)o2)cc(OC)c1OC,,inactive: -14.8%
O=C(Nc1cccc(-c2cnc3ccccc3n2)c1)C1CC(=O)N(c2ccccc2)C1 (stereo not drawn),active: 23.1 µM,
OCCN1CCN(c2cc(-c3ccc(CO)cc3)nc3ccnn23)CC1,,inactive: -9.59%
CC(=O)c1ccc(S(=O)(=O)NCCc2csc(-c3cccnc3)n2)cc1,,inactive: -26.1%
CN1C(=O)CC(c2cn(Cc3ccccc3)c3ccccc23)C1=O (stereo not drawn),,inactive: -5.88%
CCc1cc2c(SCC(=O)N3CC(=O)Nc4ccccc43)ncnc2s1,"inconclusive: 18.4 µM [inhibitor, single point]",
CCOC(=O)c1cc(C#N)c(SC)nc1-c1ccccc1,"inconclusive: 23.1 µM [inhibitor, single point]",
Oc1ccc(N2CCN(c3ncnc4sc5c(c34)CCC5)CC2)cc1,active: 13 µM,

SMILES,Potency,"activity change, negative = growth inhibition"
CC1CN(C(=O)COC(=O)CSc2ccc(C(N)=O)cc2[N+](=O)[O-])CC(C)O1 (stereo not drawn),,inactive: -6.85%
CCCCNc1c(-c2cccc(-c3ccc(OC)cc3)c2)nc2ccc(C)cn12,active: 18.4 µM,
O=C(COc1ccccc1Cl)NC(=S)N1CCc2ccccc21,"inconclusive: 20.6 µM [inhibitor, single point]",
O=C(NC(=S)NNC(=O)c1ccc(Cl)cc1Cl)c1cccnc1,"inconclusive: 20.6 µM [inhibitor, single point]",
COc1ccc(CC(=O)NNC(=O)CSc2ccc(C)cc2)cc1,,inactive: -10.8%
CC(C)Cc1cc(C(C)(C)C)ccc1OC(=S)N(C)C,"inconclusive: 23.1 µM [inhibitor, single point]",
Cc1nn(-c2ccccc2)c2c1N(CCCC(=O)NC(C)c1ccccc1)C(=O)CS2 (stereo not drawn),"inconclusive: 29.1 µM [inhibitor, single point]",
Cc1cccc(N/C(N)=N/c2nc(C)c(Cc3ccccc3)c(=O)[nH]2)c1,"inconclusive: 18.4 µM [inhibitor, single point]",
CCN1C[C@@H]2[C@@H]3C(=O)N(C)C(=O)[C@@H]3[C@](C)(C1=O)N2C(=O)c1ccc(Br)cc1,,inactive: -21.2%
CN(C)CCCN=c1cc(-c2ccccc2)oc2ccc(Cl)cc12,"inconclusive: 20.6 µM [inhibitor, single point]",
N#Cc1c(-n2cccc2/C=N/O)sc2c1CCCC2,"inconclusive: 16.4 µM [inhibitor, single point]",
Cc1nn(-c2ccccc2)c2c1N(CC(=O)N1CCN(c3ccc(Cl)cc3)CC1)C(=O)CS2,"inconclusive: 6.51 µM [inhibitor, partial curve]",
COc1cccc(OC)c1OCCCCN1CCCC1,,inactive: -17.6%
O=C(NCCS(=O)(=O)N1CCN(c2ccccc2)CC1)C12CC3CC(CC(C3)C1)C2,active: 20.6 µM,
Cc1nc([N+](=O)[O-])cn1CC(=O)c1ccccc1,,inactive: -8.96%
CS(=O)(=O)c1ccc(NC(=O)CN2C(=O)C3CCCCC3C2=O)cc1 (stereo not drawn),,inactive: 13.8%
COc1cccc(Nc2ncccc2C(=O)NCc2ccccc2)c1,"inconclusive: 20.6 µM [inhibitor, single point]",
CC(C)CC(=O)NC(=S)NCc1ccccc1,"inconclusive: 23.1 µM [inhibitor, single point]",
CCOC(=O)[C@@H]1[C@H]2COc3ccccc3[C@H]2N2C(=O)N(c3ccc(C(F)(F)F)cc3)C(=O)[C@]12C,active: 14.6 µM,
CCC(CC)C(=O)N(C)c1c(C)nc2c(OCc3ccc(C#N)cc3)cccn12,active: 18.4 µM,
CCc1ccc(CNC(=O)CCn2nc(C)c3c(C)n(-c4ccccc4)nc3c2=O)cc1,"inactive and inconclusive: 23.1 µM [inhibitor, single point]",
Cc1cccc(OCC(=O)N/N=C2/SCC(=O)N2Cc2ccco2)c1,"inconclusive: 20.6 µM [inhibitor, single point]",
COc1cccc(NC(=S)N(CCc2c(C)[nH]c3ccccc23)Cc2ccco2)c1,"inconclusive: 29.1 µM [inhibitor, single point]",

# From PubChem BioAssay AID686978 (National Center for Advancing Translational Sciences (NCATS), 2013)
